# Laboratory results reported in article PMC9911399, “Two distinct binding modes provide the RNA-binding protein RbFox with extraordinary sequence specificity”.
# Substitutions are numbered along the chain they refer to; changes in the protein carry UniProt numbers. Some of the results follow.
# T1: RBFOX1 RRM RbFoxmut (Fox-RRM*) (Homo sapiens, UniProt Q9NWB1 109-208, R118D;E147R;N151S;E152T)
# T1 sequence: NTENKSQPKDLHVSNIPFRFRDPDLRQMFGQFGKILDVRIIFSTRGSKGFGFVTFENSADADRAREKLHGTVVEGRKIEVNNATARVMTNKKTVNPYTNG
# B1: CGGAAAA (DNA:RNA)
# RNA: GGGAGACCGGAAUUCAGAUUGUCCCGGAAAAUUAAAUCCCGUCGUAGCCACCA
# DNA 1: CAATCTGAATTCCGGTCTCCC
# DNA 2: TGGTGGCTACGACGGGATT
# B2: ACCUCUA (DNA:RNA)
# RNA: B1 RNA with C25A, G26C, G27C, A28U, A29C, A30U
# DNA 1: CAATCTGAATTCCGGTCTCCC
# DNA 2: TGGTGGCTACGACGGGATT
# B3: AGGCUAC (DNA:RNA)
# RNA: B1 RNA with C25A, A28C, A29U, A31C
# DNA 1: CAATCTGAATTCCGGTCTCCC
# DNA 2: TGGTGGCTACGACGGGATT
# B4: UCACACU (DNA:RNA)
# RNA: B1 RNA with C25U, G26C, G27A, A28C, A30C, A31U
# DNA 1: CAATCTGAATTCCGGTCTCCC
# DNA 2: TGGTGGCTACGACGGGATT
# B5: CUGCGUC (DNA:RNA)
# RNA: B1 RNA with G26U, A28C, A29G, A30U, A31C
# DNA 1: CAATCTGAATTCCGGTCTCCC
# DNA 2: TGGTGGCTACGACGGGATT
# B6: GUUCAGG (DNA:RNA)
# RNA: B1 RNA with C25G, G26U, G27U, A28C, A30G, A31G
# DNA 1: CAATCTGAATTCCGGTCTCCC
# DNA 2: TGGTGGCTACGACGGGATT
# B7: GAAAAAA (DNA:RNA)
# RNA: B1 RNA with C25G, G26A, G27A
# DNA 1: CAATCTGAATTCCGGTCTCCC
# DNA 2: TGGTGGCTACGACGGGATT
# B8: CAACGGC (DNA:RNA)
# RNA: B1 RNA with G26A, G27A, A28C, A29G, A30G, A31C
# DNA 1: CAATCTGAATTCCGGTCTCCC
# DNA 2: TGGTGGCTACGACGGGATT
# B9: GCUGAUA (DNA:RNA)
# RNA: B1 RNA with C25G, G26C, G27U, A28G, A30U
# DNA 1: CAATCTGAATTCCGGTCTCCC
# DNA 2: TGGTGGCTACGACGGGATT
# B10: GUCCCUC (DNA:RNA)
# RNA: GGGAGACCGGAAUUCAGAUUGUCCGUCCCUCUUAAAUCCCGUCGUAGCCACCA
# DNA 1: CAATCTGAATTCCGGTCTCCC
# DNA 2: TGGTGGCTACGACGGGATT
# B11: UUGGAAG (DNA:RNA)
# RNA: B1 RNA with C25U, G26U, A28G, A31G
# DNA 1: CAATCTGAATTCCGGTCTCCC
# DNA 2: TGGTGGCTACGACGGGATT
# B12: CUACCUA (DNA:RNA)
# RNA: B10 RNA with G25C, C27A, C31A
# DNA 1: CAATCTGAATTCCGGTCTCCC
# DNA 2: TGGTGGCTACGACGGGATT
# B13: GUACUAC (DNA:RNA)
# RNA: B10 RNA with C27A, C29U, U30A
# DNA 1: CAATCTGAATTCCGGTCTCCC
# DNA 2: TGGTGGCTACGACGGGATT
# B14: GGAAAGU (DNA:RNA)
# RNA: B1 RNA with C25G, G27A, A30G, A31U
# DNA 1: CAATCTGAATTCCGGTCTCCC
# DNA 2: TGGTGGCTACGACGGGATT
# B15: UACUCUG (DNA:RNA)
# RNA: B10 RNA with G25U, U26A, C28U, C31G
# DNA 1: CAATCTGAATTCCGGTCTCCC
# DNA 2: TGGTGGCTACGACGGGATT
# B16: ACGCCGG (DNA:RNA)
# RNA: B10 RNA with G25A, U26C, C27G, U30G, C31G
# DNA 1: CAATCTGAATTCCGGTCTCCC
# DNA 2: TGGTGGCTACGACGGGATT
# B17: UUGUGGC (DNA:RNA)
# RNA: B10 RNA with G25U, C27G, C28U, C29G, U30G
# DNA 1: CAATCTGAATTCCGGTCTCCC
# DNA 2: TGGTGGCTACGACGGGATT
# B18: ACUGUGA (DNA:RNA)
# RNA: B1 RNA with C25A, G26C, G27U, A28G, A29U, A30G
# DNA 1: CAATCTGAATTCCGGTCTCCC
# DNA 2: TGGTGGCTACGACGGGATT
# B19: GGCGACG (DNA:RNA)
# RNA: B1 RNA with C25G, G27C, A28G, A30C, A31G
# DNA 1: CAATCTGAATTCCGGTCTCCC
# DNA 2: TGGTGGCTACGACGGGATT
# B20: GAGGUCC (DNA:RNA)
# RNA: B10 RNA with U26A, C27G, C28G, C29U, U30C
# DNA 1: CAATCTGAATTCCGGTCTCCC
# DNA 2: TGGTGGCTACGACGGGATT
# B21: GGCACCU (DNA:RNA)
# RNA: B10 RNA with U26G, C28A, U30C, C31U
# DNA 1: CAATCTGAATTCCGGTCTCCC
# DNA 2: TGGTGGCTACGACGGGATT
# B22: UUCCCAC (DNA:RNA)
# RNA: B10 RNA with G25U, U30A
# DNA 1: CAATCTGAATTCCGGTCTCCC
# DNA 2: TGGTGGCTACGACGGGATT
# B23: UAGUUAG (DNA:RNA)
# RNA: B1 RNA with C25U, G26A, A28U, A29U, A31G
# DNA 1: CAATCTGAATTCCGGTCTCCC
# DNA 2: TGGTGGCTACGACGGGATT
# B24: CAAUAUC (DNA:RNA)
# RNA: B1 RNA with G26A, G27A, A28U, A30U, A31C
# DNA 1: CAATCTGAATTCCGGTCTCCC
# DNA 2: TGGTGGCTACGACGGGATT
# B25: GCCCCUA (DNA:RNA)
# RNA: B10 RNA with U26C, C31A
# DNA 1: CAATCTGAATTCCGGTCTCCC
# DNA 2: TGGTGGCTACGACGGGATT
# B26: CGCGCAA (DNA:RNA)
# RNA: B1 RNA with G27C, A28G, A29C
# DNA 1: CAATCTGAATTCCGGTCTCCC
# DNA 2: TGGTGGCTACGACGGGATT
# B27: GACUCUG (DNA:RNA)
# RNA: B10 RNA with U26A, C28U, C31G
# DNA 1: CAATCTGAATTCCGGTCTCCC
# DNA 2: TGGTGGCTACGACGGGATT
# B28: GGGUAGC (DNA:RNA)
# RNA: B1 RNA with C25G, A28U, A30G, A31C
# DNA 1: CAATCTGAATTCCGGTCTCCC
# DNA 2: TGGTGGCTACGACGGGATT
# B29: AUAAAGA (DNA:RNA)
# RNA: B1 RNA with C25A, G26U, G27A, A30G
# DNA 1: CAATCTGAATTCCGGTCTCCC
# DNA 2: TGGTGGCTACGACGGGATT
# B30: GAGAUCA (DNA:RNA)
# RNA: B1 RNA with C25G, G26A, A29U, A30C
# DNA 1: CAATCTGAATTCCGGTCTCCC
# DNA 2: TGGTGGCTACGACGGGATT
# B31: UGCACAC (DNA:RNA)
# RNA: B1 RNA with C25U, G27C, A29C, A31C
# DNA 1: CAATCTGAATTCCGGTCTCCC
# DNA 2: TGGTGGCTACGACGGGATT
# Target: T1, RBFOX1 RRM RbFoxmut (Fox-RRM*)
# Assay: EMSA; HiTS-Eq, 1 nM pool, 10 min; buffer printed only for the single-RNA assays: 10 mM Tris pH 7.5, 150 mM NaCl, 3.4 mM EDTA, 0.001% NP-40, 30 C
# Conditions: tags: His6 N-terminal (pET28a); label: 5' 32P
# Method in brief: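 Relative association constants, normalised to the cognate motif, were derived by comparing read counts of each RNA species with those of the control reaction. The RNA sequenced was the free fraction, separated by 8% native PAGE after a 10 min equilibration in 50 µL of 1 nM 5′-radiolabelled RNA (7 randomized nucleotides) with increasing concentrations of purified wild-type or mutant RbFox RRM.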
row,Binder,binding signal
1,B1,0.0639 KA relative to UGCAUGU
2,B2,0.091 KA relative to UGCAUGU
3,B3,0.104 KA relative to UGCAUGU
4,B4,0.0628 KA relative to UGCAUGU
5,B5,0.192 KA relative to UGCAUGU
6,B6,0.0776 KA relative to UGCAUGU
7,B7,0.0608 KA relative to UGCAUGU
8,B8,0.0505 KA relative to UGCAUGU
9,B9,0.105 KA relative to UGCAUGU
10,B10,0.076 KA relative to UGCAUGU
11,B11,0.141 KA relative to UGCAUGU
12,B12,0.116 KA relative to UGCAUGU
13,B13,0.0877 KA relative to UGCAUGU
14,B14,0.0964 KA relative to UGCAUGU
15,B15,0.0643 KA relative to UGCAUGU
16,B16,0.0933 KA relative to UGCAUGU

row,Binder,binding signal
1,B17,0.11 KA relative to UGCAUGU
2,B18,0.0816 KA relative to UGCAUGU
3,B19,0.0951 KA relative to UGCAUGU
4,B20,0.0681 KA relative to UGCAUGU
5,B21,0.109 KA relative to UGCAUGU
6,B22,0.0831 KA relative to UGCAUGU
7,B23,0.106 KA relative to UGCAUGU
8,B24,0.0715 KA relative to UGCAUGU
9,B25,0.0682 KA relative to UGCAUGU
10,B26,0.0625 KA relative to UGCAUGU
11,B27,0.0709 KA relative to UGCAUGU
12,B28,0.128 KA relative to UGCAUGU
13,B29,0.112 KA relative to UGCAUGU
14,B30,0.111 KA relative to UGCAUGU
15,B31,0.0662 KA relative to UGCAUGU
